Assay results published in PubChem BioAssay AID1508642 (National Center for Advancing Translational Sciences (NCATS), 2021).
About 200 (0.47%) of roughly 43,000 compounds were called active. Roughly 12% stayed inconclusive and do not appear here. The call rests on the fitted dose curve; in most records, active means well fitted cell-killing curve with a large enough effect; inconclusive means small, poorly fitted or top-dose-only effect, or effect the other way; inactive means flat fitted curve, though single readings scatter. This is one part of the list.

Assay: Cell viability qHTS assay in S16 Pmp22-F2sN cells; further: nearly all actives have a fitted effect of over 65% in size
Details: S16 Pmp22-F2sN Schwann cells (luciferase reporters placed in the Pmp22 gene) viability, CellTiter-Glo, 24 h; series mostly up to 57.5 µM; activity change, negative = cytotoxicity: at the top concentration
Procedure, shortened: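 S16 Schwann cells carrying the Pmp22-F2sN reporter, seeded in 1536-well format, were exposed to library compounds for 24 h at 37C. Viability was read as CellTiter-Glo luminescence after 15 min at room temperature.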
On the % scale 0 is the no-effect control and ±100 the full control effect.

Compound | activity change, negative = cytotoxicity
COc1ccc(NC(=O)Cn2c(SCc3c(F)cccc3Cl)nc3ccncc32)cc1OC | inactive: 6.5%
COCCn1c(SCC(=O)Nc2ccc(Br)cc2)nc2c([nH]c3ccccc32)c1=O | inactive: 3.28%
CCCCN(C(=O)Nc1ccc(OCC)cc1)C1CCN(C(C)=O)CC1 | inactive: 7.54%
COc1ccc(N2CCN(C(=O)c3cc4c(s3)-c3c(C)cccc3OC4)CC2)cc1 | inactive: 8.93%
Cc1cc(C)cc(NC(=O)C2CCCN(c3nnc(-n4c(C)ccc4C)s3)C2)c1 (configuration not stated) | inactive: -0.718%
CCN(CC)CCCNC(=O)c1ccc2c(c1)NC(=O)C(CS(=O)(=O)Cc1ccc(F)cc1Cl)N2 (configuration not stated) | inactive: 0.0338%
CCOC(=O)c1cccc(NC(=O)Cn2cnc3nc4c(cc3c2=O)CCCC4)c1 | inactive: 0.352%
COc1ccc(N2CC(c3nc(-c4ccccc4C)no3)CC2=O)cc1Cl (configuration not stated) | inactive: 13.4%
CCc1ccc(NS(=O)(=O)c2ccc3[nH]cc(C(=O)NCCc4ccccc4)c(=O)c3c2)cc1 | inactive: 13.7%
COCCNC(=O)c1sc2nc3n(c(=O)c2c1C)CCC3 | inactive: -2.31%
COc1ccc(-c2noc(CNC(=O)c3ccc(OC)cc3OC)n2)cc1 | inactive: 6.46%
Cc1cccc(CNC(=O)C2CCN(S(=O)(=O)c3cccc4nonc34)CC2)c1 | inactive: 18%
CCCC(=O)OCc1cnc(C)c2oc(=O)c(C(=O)Nc3ccc(F)cc3C)cc12 | inactive: 3.18%
CCCCN(CC)CCNC(=O)c1nn(-c2ccc(OC)cc2)c(=O)c2c1c1ccccc1n2C | inactive: 6.17%
N#C/C(=C\c1ccccc1)c1nc(-c2cc3c(ccc4ccccc43)oc2=O)cs1 | inactive: 4.96%
COc1cccc(-c2noc(COc3cccc(C)c3C)n2)c1 | inactive: 3.94%
CCOc1ccc(CCNC(=O)C2CC(=O)N(CCc3ccc(OC)c(OC)c3)C2)cc1OCC (configuration not stated) | inactive: 3.81%
Clc1cccc(N2CCN(c3nc4ccccc4c4nc(-c5cccnc5)nn34)CC2)c1 | inactive: -0.0056%
COc1ccc(C)cc1NC(=O)c1ccc2c(c1)N(Cc1cccc(Cl)c1)C(=O)c1ccccc1S2=O (configuration not stated) | inactive: 1.72%
Cc1ccc(C)c(NC(=O)c2ccc(=O)n(Cc3ccc(F)cc3)c2)c1 | inactive: -3.14%
CCCCC(=O)Nc1cc(-c2nc3ccccc3o2)ccc1OC | inactive: 13.4%

Compound | activity change, negative = cytotoxicity
CCS(=O)(=O)N1CCc2cc(C(=O)N3CCN(c4ccccc4)CC3)ccc21 | inactive: -3.74%
CCOC(=O)c1noc2ncn(CC(=O)Nc3ccc(OC)c(Cl)c3)c(=O)c12 | inactive: -5.18%
Cc1ccc(S(=O)(=O)c2nc(-c3cccs3)oc2SC(C)c2ccccc2)cc1 (configuration not stated) | inactive: -0.606%
Cc1cc(C)n2nc(SCC(=O)Nc3ccc(O)cc3)nc2n1 | inactive: -6.43%
COc1ccc2[nH]cc(CCNC(=O)Nc3c(C)cccc3C)c2c1 | inactive: -9.78%
Cc1ccc(NC(=O)CSc2ncccc2C(=O)Oc2ccccc2Cl)cc1Cl | inactive: -12.8%
CCOc1ccc(-c2cc(C(=O)NCc3ccc(OCC)c(OC)c3)[nH]n2)cc1 | inactive: 6.04%
COc1ccc(-c2ccc(NS(=O)(=O)c3ccccc3)cc2)nn1 | inactive: 5.59%
O=c1c2sc3ccccc3c2n(Cc2ccc(F)cc2)c(=O)n1Cc1ccccc1 | inactive: 0.729%
CCc1cccc(CC)c1NC(=O)CCS(=O)(=O)c1ccc(Br)cc1 | inactive: -10.9%
CCc1ccc(NC(=O)Cn2c(=O)n(CCCC(=O)NCc3ccccc3OC)c(=O)c3ccccc32)cc1 | inactive: 21.9%
COc1cc(C)ccc1OCCSc1nc2ccc(NC(=O)c3ccc4c(c3)OCO4)cc2s1 | inactive: -5.88%
Cc1cc(NC(=O)CN(C)S(=O)(=O)c2ccc3c(c2)CCCC(=O)N3)ccc1Br | inactive: -21.2%
Cc1cccc(NC(=O)C(=O)NCC(c2cccnc2)N2CCc3ccccc32)c1C (configuration not stated) | inactive: -15.2%
CCOc1ccc(-c2nonc2NC(=O)c2oc3ccc(Cl)cc3c2C)cc1 | inactive: -3.66%
Cc1ccn2c(=O)c(C(=O)Nc3ccc(F)c(C(F)(F)F)c3)cnc2c1 | inactive: -2.55%
O=C(Cn1cc(S(=O)(=O)c2ccc(F)cc2)c(=O)c2cc3c(cc21)OCO3)Nc1ccccc1 | inactive: 3.46%
CC1=C(C(=O)Nc2ccc(C)cc2C)C(CC(C)C)n2nc(SCc3ccccc3C)nc2N1 (configuration not stated) | inactive: 1.63%
COc1cccc(NC(=O)c2oc3ccccc3c2NC(=O)COc2ccccc2C)c1 | inactive: -0.633%
COC(=O)c1ccccc1NC(=O)CCCn1nc(C)c2sc3ccccc3c2c1=O | inactive: 10.1%
COc1ccc(-c2nnn3c2nc(NCc2ccccc2)c2ccccc23)cc1 | inactive: 27.5%

Compound | activity change, negative = cytotoxicity
O=c1oc2c(F)cc(F)cc2cc1S(=O)(=O)c1ccc(F)cc1 | inactive: -3.07%
Cc1nc(C)c(CCNS(=O)(=O)c2ccc(C)c(C)c2)s1 | inactive: 1.11%
Cc1ccc(Cc2nc3ccccc3nc2SCC(=O)N2CCCCC2)cc1 | inactive: -6.64%
CCOc1ccc(CN2CCN(S(=O)(=O)c3ccc(Cl)cc3)CC2)cc1 | inactive: -7.72%
CC(C)Cc1ccc(S(=O)(=O)Nc2ccc3[nH]c(=O)[nH]c3c2)cc1 | inactive: -17.5%
CCOc1ccc(OCC)c(NC(=O)c2cnc3c(-c4ccccc4)c(C)nn3c2C)c1 | inactive: 5.16%
O=C(CCC1N=C2c3ccccc3N=C(SCc3ccccc3Cl)N2C1=O)NCc1cccs1 (configuration not stated) | inactive: 0.478%
O=C(NCc1ccccc1F)C(=O)NCC(c1cccs1)S(=O)(=O)c1cccs1 (configuration not stated) | inactive: 0.78%
COc1ccccc1OCC(=O)NCC1(N2CCOCC2)CCCCC1 | inactive: 16.9%
O=C(NCc1cccc(Cl)c1)c1ccc(CS(=O)Cc2ccccc2Cl)o1 (configuration not stated) | inactive: -21%
COC(=O)c1cc2oc(C)cc2n1Cc1cccc(Cl)c1 | inactive: 2.09%
Cc1ccc(-n2c(=O)c3c(c4cc(C)ccc4n3C)n(CC(=O)NCCC3=CCCCC3)c2=O)cc1 | inactive: 4.72%
O=c1c2oc3ccccc3c2n(Cc2cccc(Cl)c2)c(=O)n1Cc1ccc2c(c1)OCO2 | inactive: 8.48%
CC(=O)c1c(C)oc2c(Cl)cc(NS(=O)(=O)c3cc(C)c(C)cc3C)cc12 | inactive: 16.5%
COCCn1c(SCC(=O)c2ccc(OC)cc2)nc2cc(C(=O)NC3CCCC3)ccc2c1=O | inactive: 6.87%
CCCOc1ccc(-c2nonc2NC(=O)COc2ccc(C)cc2)cc1OCCC | inactive: -2.06%
CCC(=O)Nc1ccc2nc(SCCOc3cccc(C)c3)sc2c1 | inactive: 9.58%
Cc1ccc(S(=O)(=O)c2nnn(CC(=O)Nc3ccccc3C)c2N)cc1C | inactive: -0.806%
COc1ccc(NC(=O)Cn2c(=O)n(-c3cccc(C)c3)c(=O)c3c2c2cc(C)ccc2n3C)cc1OC | inactive: -2.11%
Cc1ccc2oc(-c3ccc(C)c(NC(=O)c4ccc5c(c4)OCCO5)c3)nc2c1 | inactive: 15.3%
